This is an account of results in the supplement of paper PMC4604168 (melanoma cell lines).

The other results are listed elsewhere or left out. Many values rest on one well or one pass, so single values are uncertain.
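Further: cell number obtained by counting DAPI-stained nuclei in high-throughput microscope images with image analysis software, screen run in 1,536-well plates.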

The assay deals with A2058. As to the kind of experiment: cell count relative to DMSO control; melanoma cells; higher = more viable cells. The conditions noted are these: library dose: low library concentration; 72 h.
Compound `C[C@]1(O)C[C@@H](c2nc(-c3ccc4ccc(-c5ccccc5)nc4c3)c3c(N)nccn32)C1` + Clc1ccc(Nc2nnc(Cc3ccncc3)c3ccccc23)cc1 [vatalanib] (first compound 0.4 µM, partner dose 2 µM) gave a cell count of 100%.

`COc1cc([C@@H]2c3cc4c(cc3[C@@H](O[C@@H]3O[C@@H]5CO[C@@H](C)O[C@H]5[C@H](O)[C@H]3O)[C@H]3COC(=O)[C@H]23)OCO4)cc(OC)c1O` [etoposide] + O=C(O)[C@@H]1[O][Sb](=[O])([O][Sb]2(=[O])[O][C@H]([C@H](O)CO)[C@H](O)[C@H](C(=O)O)[O]2)[O][C@H]([C@H](O)CO)[C@@H]1O [stibogluconate] (first compound 0.02 µM, partner dose 2 µM) registered a cell count of 104%.

Regarding `CCN(CC)CCNC(=O)c1c(C)[nH]c(/C=C2\C(=O)Nc3ccc(F)cc32)c1C` [sunitinib] + Cn1c(Nc2ccc(C(F)(F)F)cc2)nc2cc(Oc3ccnc(-c4ncc(C(F)(F)F)[nH]4)c3)ccc21 [CHIR265] (first compound 0.4 µM, partner dose 0.08 µM), the cell count amounted to 100%.

`CCN(CC)CCNC(=O)c1c(C)[nH]c(/C=C2\C(=O)Nc3ccc(F)cc32)c1C` [sunitinib] + CNC(=O)c1cc(Oc2ccc(NC(=O)Nc3ccc(Cl)c(C(F)(F)F)c3)cc2)ccn1 [sorafenib] (first compound 0.4 µM, partner dose 0.4 µM): the cell count worked out at 108%.

As for `C[C@]1(O)C[C@@H](c2nc(-c3ccc4ccc(-c5ccccc5)nc4c3)c3c(N)nccn32)C1` + C=C(c1ccc(C(=O)O)cc1)c1cc2c(cc1C)C(C)(C)CCC2(C)C [Bexarotene] (first compound 0.4 µM, partner dose 2 µM), the cell count worked out at 85%.

Regarding `CCN(CC)CCNC(=O)c1c(C)[nH]c(/C=C2\C(=O)Nc3ccc(F)cc32)c1C` [sunitinib] + CN(c1ncccc1CNc1nc(Nc2ccc3c(c2)CC(=O)N3)ncc1C(F)(F)F)S(C)(=O)=O [PF562271] (first compound 0.4 µM, partner dose 0.08 µM), the cell count was found to be 83.3%.

`CCN(CC)CCNC(=O)c1c(C)[nH]c(/C=C2\C(=O)Nc3ccc(F)cc32)c1C` [sunitinib] + NC1(c2ccc(-c3nc4ccn5c(=O)[nH]nc5c4cc3-c3ccccc3)cc2)CCC1 [MK2206] (first compound 0.4 µM, partner dose 0.4 µM) gave a cell count of 93.6%.

Regarding `Cn1cnc2c(F)c(Nc3ccc(Br)cc3Cl)c(C(=O)NOCCO)cc21` [selumetinib] + CNC(=O)c1cc(Oc2ccc(NC(=O)Nc3ccc(Cl)c(C(F)(F)F)c3)cc2)ccn1 [sorafenib] (first compound 0.015 µM, partner dose 0.4 µM), the cell count came out at 96.8%.

On to `Cn1cnc2c(F)c(Nc3ccc(Br)cc3Cl)c(C(=O)NOCCO)cc21` [selumetinib] + Cc1cc(Nc2cc(N3CCN(C)CC3)nc(/C=C/c3ccccc3)n2)n[nH]1 [ENMD2076] (first compound 0.015 µM, partner dose 0.04 µM), for which the cell count amounted to 104%.

The compound `COc1cc([C@@H]2c3cc4c(cc3[C@@H](O[C@@H]3O[C@@H]5CO[C@@H](C)O[C@H]5[C@H](O)[C@H]3O)[C@H]3COC(=O)[C@H]23)OCO4)cc(OC)c1O` [etoposide] + Nc1nc(F)nc2c1ncn2[C@@H]1O[C@H](CO)[C@@H](O)[C@@H]1O [fludarabine] (first compound 0.02 µM, partner dose 0.2 µM) yielded a cell count of 90.5%.

As to `COc1cc([C@@H]2c3cc4c(cc3[C@@H](O[C@@H]3O[C@@H]5CO[C@@H](C)O[C@H]5[C@H](O)[C@H]3O)[C@H]3COC(=O)[C@H]23)OCO4)cc(OC)c1O` [etoposide] + Cn1sc(=O)n(Cc2ccccc2)c1=O [TDZD-8] (first compound 0.02 µM, partner dose 0.4 µM), the cell count was determined as 101%.

In turn, `Cn1cnc2c(F)c(Nc3ccc(Br)cc3Cl)c(C(=O)NOCCO)cc21` [selumetinib] + CO[C@H]1C[C@@H]2CC[C@@H](C)[C@@](O)(O2)C(=O)C(=O)N2CCCC[C@H]2C(=O)O[C@H]([C@H](C)C[C@@H]2CC[C@@H](OCCO)[C@H](OC)C2)CC(=O)[C@H](C)/C=C(\C)[C@@H](O)[C@@H](OC)C(=O)[C@H](C)C[C@H](C)/C=C/C=C/C=C/1C [everolimus] (first compound 0.015 µM, partner dose 0.02 µM) returned a cell count of 64.4%.
